According to PMC4336329 (PLoS ONE, 2015):
About 14,000 (4.5%) of roughly 310,000 compounds showed an effect of 50% or more. Effects have a minus sign here. This is one part of the list.

Target: human ether-à-go-go-related gene (hERG) potassium channel (human, UniProt Q12809)
Test: primary screen, population patch clamp on CHO cells stably expressing hERG
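Further: peak tail current of the secondary pulse compared with the same well before compound.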

human ether-à-go-go-related gene (hERG) potassium channel, sequence (Q12809 whole entry, looked up): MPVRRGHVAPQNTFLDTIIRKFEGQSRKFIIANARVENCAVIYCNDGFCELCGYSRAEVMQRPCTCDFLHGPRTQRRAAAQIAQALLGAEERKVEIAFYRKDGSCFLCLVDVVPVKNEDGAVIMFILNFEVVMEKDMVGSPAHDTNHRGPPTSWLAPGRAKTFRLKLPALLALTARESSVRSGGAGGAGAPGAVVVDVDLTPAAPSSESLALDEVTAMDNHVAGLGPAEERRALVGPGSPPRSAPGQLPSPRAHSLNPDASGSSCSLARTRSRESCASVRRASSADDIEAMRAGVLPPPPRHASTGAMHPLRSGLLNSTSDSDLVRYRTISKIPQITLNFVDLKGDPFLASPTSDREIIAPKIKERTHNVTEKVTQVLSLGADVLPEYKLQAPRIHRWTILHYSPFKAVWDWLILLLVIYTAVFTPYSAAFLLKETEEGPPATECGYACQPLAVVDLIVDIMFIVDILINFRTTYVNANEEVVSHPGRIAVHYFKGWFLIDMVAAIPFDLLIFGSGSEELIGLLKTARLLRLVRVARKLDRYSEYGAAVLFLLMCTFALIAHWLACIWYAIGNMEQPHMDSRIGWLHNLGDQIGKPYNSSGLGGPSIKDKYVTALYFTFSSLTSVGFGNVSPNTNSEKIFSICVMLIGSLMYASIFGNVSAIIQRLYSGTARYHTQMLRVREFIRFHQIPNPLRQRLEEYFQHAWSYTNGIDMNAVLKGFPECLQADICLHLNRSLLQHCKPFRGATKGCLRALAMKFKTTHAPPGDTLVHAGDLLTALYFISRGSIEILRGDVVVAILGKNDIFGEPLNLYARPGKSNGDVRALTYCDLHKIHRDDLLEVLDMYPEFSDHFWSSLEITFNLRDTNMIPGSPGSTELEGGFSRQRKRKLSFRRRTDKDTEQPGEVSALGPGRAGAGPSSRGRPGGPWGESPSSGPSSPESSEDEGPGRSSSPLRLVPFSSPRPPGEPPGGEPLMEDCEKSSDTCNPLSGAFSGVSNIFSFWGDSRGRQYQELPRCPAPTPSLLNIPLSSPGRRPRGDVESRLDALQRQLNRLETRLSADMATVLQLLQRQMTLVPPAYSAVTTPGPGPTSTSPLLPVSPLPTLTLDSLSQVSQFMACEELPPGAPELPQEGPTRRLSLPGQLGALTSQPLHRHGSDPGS

In order of falling “hERG current change (%, negative = inhibition) at 10uM” value:
1. O=c1c(-c2ccc(Cl)cc2)c[nH]n1-c1ccccc1  28.6%
2. Cc1[nH][nH]c(=O)c1C(c1ccc([N+](=O)[O-])cc1)c1c(C)[nH][nH]c1=O  23.9%
3. Cc1csc(NC(=O)[C@@H]2CCCN2C(=O)c2cccs2)n1  22.7%
4. COc1ccc2nc(C)cc(SCC(=O)NNC(=O)COc3ccccc3)c2c1  17.9%
5. COc1cc(/C=C/C(=O)OCC(=O)c2c(N)n(C)c(=O)n(C)c2=O)ccc1O  17.6%
6. COCCOC(=O)c1cc(C(=O)c2cc(Cl)ccc2O)coc1=N  16.2%
7. O=C(NCCS(=O)(=O)N1CCN(c2ccccc2F)CC1)c1cc(=O)c2ccccc2o1  15%
8. O=C(CCC1N=C2c3ccccc3N=C(SCC(=O)NCc3ccco3)N2C1=O)NCc1ccco1 (stereo not shown)  12.7%
9. Cc1cccc(-n2cnc3c(sc4nc(N5CCOCC5)c5c(c43)CCCC5)c2=O)c1  12.5%
10. O=C(N/N=C/c1cc(Br)cc(Br)c1O)c1cccc(S(=O)(=O)N2CCOCC2)c1  11.3%
11. CCOc1ccc(C(=O)NC(=S)Nc2ccc(NC(=O)c3ccco3)cc2)cc1[N+](=O)[O-]  9.8%
12. COc1ccc(C2CC(C(F)(F)F)n3nc(C(=O)O)c(Cl)c3N2)cc1OC (stereo not shown)  7.59%
13. CC(C)(C)C(=O)Cn1nnc(-c2ccc(C(F)(F)F)cc2)n1  7.47%
14. O=C(CCCSc1nc2ccccc2[nH]1)Nc1ccccc1  7.05%
15. COC(=O)CSc1nc2ccccc2c(=O)n1C  5.6%
16. Cc1ccc(S(=O)(=O)N(C(=N)N)c2nc(N(C)C)nc(N(C)C)n2)cc1  4.96%
17. Nc1ccccc1C(=O)OCCOc1ccccc1  4.28%
18. COC(=O)c1nn(C23CC4CC(CC(C4)C2)C3)c2c1C(=O)N(c1ccc(Br)cc1)C2=O  4.07%
19. CSCCC(NC(=O)c1ccccc1Cl)C(=O)N1CC(C)OC(C)C1 (stereo not shown)  3.3%
20. COc1nc(C)nc2c1sc(=S)n2C  3.04%
21. CCCS(=O)(=O)N1CCCC(C(=O)N2CCN(C(=O)OCC)CC2)C1 (stereo not shown)  3.02%
22. O=C(COc1ccccc1)NC1CCCCC1  2.93%
23. O=C(Cc1coc2ccc3ccccc3c12)Nc1nccs1  1.87%
24. O=C(NC1CCCCC1)NC1CC2CCCC(C1)N2C1CCCC1 (stereo not shown)  0.263%
25. Cc1cccc(C)c1NC(=O)CSc1ncnc2nc[nH]c12  -0.01%
26. Cc1ccc(S(=O)(=O)N2CCC(=O)N(C(CO)Cc3ccccc3)CC2)cc1 (stereo not shown)  -0.0627%
27. CC(C)CCNC(=O)c1ccc2nc[nH]c2c1  -0.442%
28. COc1ccc(-c2[nH]n(-c3ccc([N+](=O)[O-])cc3)c(=O)c2C=NCc2ccncc2)cc1  -3.44%
29. O=S(Cc1ccc(Cl)cc1)c1ncc(CO)n1Cc1ccccc1 (stereo not shown)  -3.62%
30. CC1=NN(C(=O)CSCc2ccccc2)C(O)(c2ccccc2)C1 (stereo not shown)  -5.02%
31. Cc1ccccc1-c1ccccc1N  -5.71%
32. Fc1ccc(N2CCN(c3ncnc4nc[nH]c34)CC2)cc1  -7.41%
33. COc1cc(-c2nnc3sc(-c4ccncc4)nn23)cc(OC)c1OC  -8.25%
34. O=C(NCCCCCCNC(=O)N1CCCCCC1)N1CCCCCC1  -10.2%
35. COc1ccc(OCC(O)CN2C(=O)c3ccccc3S2(=O)=O)cc1 (stereo not shown)  -11.5%
36. Cc1ccc(S(=O)(=O)CCC(=O)Nc2nc(C(C)(C)C)cs2)cc1  -12.1%
37. COc1cc(C2Nc3cc(Cl)c(S(N)(=O)=O)cc3S(=O)(=O)N2)cc(OC)c1OC (stereo not shown)  -12.9%
38. COc1ccccc1C(=O)COC(=O)c1cc([N+](=O)[O-])ccc1N1CCOCC1  -13.3%
39. CCNc1nc(NCC)nc(N/N=C(\C)c2ccc(OC)cc2)n1  -14.1%
40. CCCN1C(=O)/C(=C\c2ccncc2)SC1=Nc1ccccc1  -14.5%
41. CNC(=O)c1ccc(C)c(NC(=O)C2=C(C)OCCS2)c1  -14.8%
42. CCc1cccc(NC(=O)c2cc(OC)c(OC)c(OC)c2)c1  -15.1%
43. CCN(CC)CCCn1c(C)cc2c(c1=O)C(c1ccccc1)C(C#N)=C(N)O2 (stereo not shown)  -17%
44. CCOC(=O)CSc1nc2c(c(=O)[nH]c(=O)n2C)n1CCCc1ccccc1  -19.6%
45. COc1ccccc1C1=NOC(C(=O)N2CCN(C(=O)c3ccco3)CC2)C1 (stereo not shown)  -19.7%
46. Cc1cc(C)nc(SCc2nnc(SCC(=O)N3CCCc4ccccc43)o2)n1  -20.2%
47. CCCCN(C)CC(O)Cn1cc(/C=C/C(=O)c2ccc(OCC)cc2)c2ccccc21 (stereo not shown)  -20.5%
48. O=C(COC(=O)CCC(=O)c1cccs1)Nc1ccc(S(=O)(=O)N2CCOCC2)cc1  -21.3%
49. COCCn1c(=N)c(S(=O)(=O)c2ccc(F)cc2)cc2c(=O)n3cccc(C)c3nc21  -22.5%
50. Cc1ccc(OCC(=O)O/N=C(\N)Cc2ccc([N+](=O)[O-])cc2)cc1C  -32.7%
51. Nc1nc(NCCCN2CCOCC2)nc(Nc2cccc(F)c2)c1[N+](=O)[O-]  -37.6%
52. COc1cccc(C(=O)NCCS(=O)(=O)NC(C)CCc2ccccc2)c1 (stereo not shown)  -43.8%
53. Cc1nnc2sc(SCC(=O)Nc3cccc(Cl)c3)nn2c1=O  -47.5%
54. COc1ccc(/C=N/NC(=O)c2cccnc2)cc1CN1CCN(c2ccc(F)cc2)CC1  -51%
55. CCCCCN(C(=O)CCC(=O)OCC(=O)c1ccc(CCC)cc1)c1c(N)n(CCCC)c(=O)[nH]c1=O  -61.5%
